# From PubChem BioAssay AID1345082 (National Center for Advancing Translational Sciences (NCATS), 2018)
# The campaign covered roughly 94,000 compounds. About 4,000 (4.3%) were called active. Inconclusive means that the source gave no clear call. Such entries were picked first, then a sample of the others. The call rests on the fitted dose curve; in most records, active means well fitted inhibition curve with a large enough effect; inconclusive means small, poorly fitted or top-dose-only effect; inactive means no such curve, though single readings can be large or run the other way. Where the call is inconclusive, the potency comes from a doubtful curve fit.
# Assay: Cytotoxic Profiling in NIH 3T3 Cell Line of Diverse Libraries Using Quantitative High-Throughput Screening; further: nearly all actives have a fitted effect of over 55% in size
# Details: NIH 3T3 viability, CellTiter-Glo ATP luminescence, 48-72 h; series mostly up to 96.7 µM
# How it was run: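 Cells were seeded at 400 per well, treated with pin-transferred compound, and kept 48 or 72 hr at 37 °C before CellTiter-Glo addition and luminescence imaging of cellular ATP.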
# Potency means the concentration at half of the fitted maximal effect; tags describe the fitted curve by direction and shape.
row,Compound,Potency
1,O=C1NCCCCCN(C(=O)NC2CCCCC2)[C@@H]2C[C@@H](C(=O)N3CCc4ccccc4C3)C[C@H]12,inactive
2,COc1cccc(-c2noc(CC3CCN(C(=O)c4cc(Cl)ccc4F)CC3)n2)c1,"inconclusive: 50.1 µM [inhibitor, partial curve, poor fit]"
3,CCN(CC)Cc1nc(C2(O)CCN(C3CCCC3)CC2)cs1,"inconclusive: 89.1 µM [inhibitor, partial curve, poor fit]"
4,CNc1nccc(N2CCC(CC(=O)NCCCN3CCc4ccccc4C3)CC2)n1,"inconclusive: 44.7 µM [inhibitor, partial curve, poor fit]"
5,O=C(CCc1ccccc1)N1CCC(Cc2nc(-c3ccc(F)cc3)no2)CC1,"inconclusive: 44.7 µM [inhibitor, partial curve, poor fit]"
6,COc1cccc(Nc2ccc3c(n2)C(C)(C(=O)NCCc2ccccn2)CN(C)C3)c1 (stereo not drawn),"inconclusive: 100 µM [inhibitor, partial curve, poor fit]"
7,COc1cccc(-c2ccccc2NC(=O)C2CCN(c3nccnc3C)CC2)c1,active: 22.4 µM
8,Fc1ccc(-c2cnc([C@@H]3COCCN3CC3CC3)[nH]2)cc1,"inconclusive: 79.4 µM [inhibitor, partial curve, poor fit]"
9,O=C1NC(=NC2CCCC2)C2(CCN(CC3CCCCC3)CC2)N1c1cc(F)cc(F)c1,inactive
10,COc1ccccc1-c1ccnc(N[C@H]2CO[C@H]3[C@@H]2OC[C@@H]3NS(=O)(=O)c2ccc3ccccc3c2)n1,"inconclusive: 31.6 µM [inhibitor, full curve]"
11,CN(C)CCNC(=O)C1(C)CN(Cc2ccccc2)Cc2ccc(N3CCOCC3)nc21 (stereo not drawn),"inconclusive: 89.1 µM [inhibitor, partial curve]"
12,Cc1cc(C)n(CCC(=O)N2CCC3(CC2)CC(OCC2CC2)CCO3)n1 (stereo not drawn),inactive
13,CC(=O)N1CCc2nn(CC(=O)Nc3ccccc3C)c(=O)cc2C1,inactive
14,Cc1ccc(CNC(=O)c2ccc3nccn3c2)o1,"inconclusive: 89.1 µM [inhibitor, partial curve, poor fit]"
15,CCOCCNc1ncnc2c1CN(c1ccc(C)cc1)C(=O)CN2C,inactive
16,CNC(=O)c1cc(C2CC2)nc2c1c(C1CCN(C(=O)c3ccncc3)CC1)nn2C,inactive
17,O=c1c2nc(-c3ccccc3C(F)(F)F)ccc2ncn1C1CC1,"inconclusive: 112 µM [inhibitor, single point]"
18,O=C(Nc1ccc([C@@H](O)[C@H]2COCC(=O)N2Cc2ccc(F)cc2)cc1)c1ccnc(Cl)c1,"inconclusive: 28.2 µM [inhibitor, partial curve]"
19,CC[C@H]1CN(S(=O)(=O)c2ccc(OC)cc2)CC[C@H]1CC(=O)N(C)CC#N,"inconclusive: 126 µM [inhibitor, single point]"
20,Cc1ccc(-c2cnc([C@@H]3COCCN3Cc3cn(C)c4ccccc34)[nH]2)cc1,"inconclusive: 50.1 µM [inhibitor, partial curve, poor fit]"
21,CC1=C[C@@H](CNS(=O)(=O)c2ccc(C)cc2)[C@H](C(C)C)C[C@H]1CC(=O)N(C)Cc1cccnc1,active: 11.2 µM

row,Compound,Potency
1,O=C(Cc1cccc(F)c1)N1CCN(c2cc(C(F)(F)F)ncn2)CC1,inactive
2,CCOc1nccn2c(-c3ccc(CN4CCN(C(C)=O)CC4)cc3)cnc12,"inconclusive: 112 µM [inhibitor, single point]"
3,C#CCNC(=O)[C@H]1C[C@@H](O)[C@H](O)[C@@H]2N=C(Nc3cccc(C(F)(F)F)c3)S[C@@H]21,"inconclusive: 126 µM [inhibitor, single point]"
4,COc1ccc(-c2cc(C(=O)NCC(F)(F)F)c3c(C4CCCN4)nn(C)c3n2)cc1 (stereo not drawn),"inconclusive: 44.7 µM [inhibitor, partial curve, poor fit]"
5,COc1ccc(C2(C(=O)N3CCCN(S(=O)(=O)c4ccccc4)CCC(=O)NCC3)CC2)cc1,"inconclusive: 2.82 µM [inhibitor, full curve, poor fit]"
6,O=C(NCCNC(=O)c1ccc(-c2cncnc2)cc1)NC1CCCC1,inactive
7,CNC(=O)[C@H]1C[C@H](Oc2ccccc2)CN1C(=O)c1ccc(Cc2c(C)noc2C)o1,inactive
8,O=C(NCC1CC1)c1nc2c(o1)CCN(Cc1ccc3[nH]ccc3c1)CC2,"inconclusive: 89.1 µM [inhibitor, partial curve, poor fit]"
9,Cc1ccc(C(=O)N2CCC(CCC(=O)N(C)CCc3c(C)nn(C)c3C)CC2)cc1,"inconclusive: 44.7 µM [inhibitor, partial curve, poor fit]"
10,COCC(=O)N1CC[C@@H](CC(=O)O)[C@@H](CCN2CCN(c3ccc(F)cc3)CC2)C1,inactive
11,CCCOc1cc(C)c2c(c1C)C[C@H]([C@H](C)C(=O)NCCOC)CC2,"inconclusive: 63.1 µM [inhibitor, full curve, poor fit]"
12,COc1ccc(C2Cn3cnc(C(=O)N4CCC(C(=O)NCc5ccccc5)CC4)c3CO2)cc1 (stereo not drawn),inactive
13,COc1cccc(CCNC(=O)c2cc(-c3ccc(C(F)(F)F)cc3)nc3c2cnn3C)c1,inactive
14,COc1ccc(C(=O)N2CCCC2C(=O)N2CCC(c3ccccc3)CC2)cc1 (stereo not drawn),inactive
15,O=C(c1ccc(Cl)cc1)N1CCCN(c2ccc3nnc(-c4ccccc4)n3n2)CC1,"inconclusive: 70.8 µM [inhibitor, single point]"
16,COc1ccc2nc([C@H]3CCN(CCCc4ccccc4)C3)[nH]c2c1,"inconclusive: 70.8 µM [inhibitor, partial curve, poor fit]"
17,O=C(c1ccc(C(F)(F)F)cc1)N1CCCC(C(=O)N2CCC(N3CCOCC3=O)CC2)C1 (stereo not drawn),inactive
18,O=C(NCCCn1cccn1)C1CN(S(=O)(=O)c2cccs2)CC12CCCCC2 (stereo not drawn),inactive
19,Cc1ccoc1C(=O)N1C[C@@H](CO)[C@H](c2ccccn2)C1,inactive
20,CC(C)(C)CC(=O)N1CCC(N2C(=O)CCC2C(=O)NCc2ccccc2)CC1 (stereo not drawn),inactive
21,COc1ccc(-c2cccc(C(=O)N3CCN(C(=O)C4CCCC4)CC3)c2)nn1,inactive

row,Compound,Potency
1,CCCCn1c(=O)c(C(=O)NCc2ccccn2)nc2cccnc21,"inconclusive: 44.7 µM [inhibitor, single point]"
2,Cc1cc2ncc(C(=O)NCc3cccc(C(F)(F)F)c3)cn2n1,"inconclusive: 79.4 µM [inhibitor, partial curve]"
3,CCc1ccc(NC(=O)Cn2c(N3CCN(c4ccccc4)CC3)nc(C)cc2=O)cc1,inactive
4,CCn1ccc(C(=O)N2CCC3(CC2)CC(N(C2CC2)S(=O)(=O)CC)CCO3)n1 (stereo not drawn),"inconclusive: 70.8 µM [inhibitor, single point]"
5,Cc1cnc(C2CCOCC2)n1CCNC(=O)c1cccn1C,inactive
6,Cc1ccc(C(=O)NC2CCN(c3cc(-c4ccccc4)[nH]n3)CC2)cc1F,active: 35.5 µM
7,CN(C)Cc1ccc(-c2cc(-c3ccc(=O)[nH]c3)c3cncn3c2)cc1,"inconclusive: 79.4 µM [inhibitor, partial curve, poor fit]"
8,COc1ccc(Nc2cnc3ccc(-c4ccccc4)nn23)cc1OC,"inconclusive: 39.8 µM [inhibitor, partial curve]"
9,CCCCCNC(=O)Cc1csc2nc(C)c(-c3cc(C)n(-c4cc(Cl)ccc4C)n3)c(=O)n12,"inconclusive: 12.6 µM [inhibitor, full curve, poor fit]"
10,CN1c2cc(C(=O)Nc3cccc(C(F)(F)F)c3)ccc2C(=O)N2CCCCCC21 (stereo not drawn),"inconclusive: 14.1 µM [inhibitor, full curve, poor fit]"
11,O=C(Nc1ccc2c(c1)OCCO2)N1CCCC1Cc1noc(Cc2ccccc2)n1 (stereo not drawn),"inconclusive: 44.7 µM [inhibitor, partial curve, poor fit]"
12,CCCCCC(=O)N1[C@@H](c2ccco2)[C@@H](C(=O)OCC)C[C@]12CCCCNC2=O,"inconclusive: 39.8 µM [inhibitor, partial curve, poor fit]"
13,Cc1nn(-c2ccc(C(F)(F)F)cc2)c(C)c1[C@@H]1C=C[C@@H](NC(=O)CC(C)(C)CC(=O)O)C1,"inconclusive: 50.1 µM [inhibitor, partial curve, poor fit]"
14,Oc1ccccc1CN1CCOC[C@H]1c1ncc(-c2ccc(F)cc2F)[nH]1,"inconclusive: 100 µM [inhibitor, partial curve]"
15,CCOC(=O)[C@H]1[C@@H](O)C(=O)N(Cc2ccccc2)C12CCN(C(=O)CC)CC2,"inconclusive: 79.4 µM [inhibitor, partial curve, poor fit]"
16,O=C(Nc1ccc2ncnc(N3CCCC3)c2c1)c1ccc(F)cc1Cl,"inconclusive: 44.7 µM [inhibitor, partial curve, poor fit]"
17,C=CCNC(=O)c1ccc(Cn2ccn3nc4c(c3c2=O)CCCC4)cc1,"inconclusive: 35.5 µM [inhibitor, partial curve, poor fit]"
18,CC(=O)Nc1ccc(CNC[C@H]2Cn3c(-c4ccc5c(c4)OCCO5)cnc3CO2)cc1,inactive
19,CN1Cc2nc(-c3cccc(C(F)(F)F)c3)ccc2OCC1=O,"inconclusive: 89.1 µM [inhibitor, partial curve]"
20,O=C(NCCc1ccncc1)C1c2ccccc2C(=O)N(C2CCCCC2)C12CCCCC2 (stereo not drawn),"inconclusive: 56.2 µM [inhibitor, partial curve, poor fit]"
21,CCC(NC(=O)c1cc(Cn2ccc3ccccc32)[nH]n1)c1ncccc1C (stereo not drawn),"inconclusive: 50.1 µM [inhibitor, partial curve, poor fit]"
